# Results reported in publication PMC4336329 (PLoS ONE, 2015).
# The campaign covered roughly 310,000 compounds. About 14,000 (4.5%) showed an effect of 50% or more. Effects have a minus sign here. This is one part of the list.
# Molecular target: human ether-à-go-go-related gene (hERG) potassium channel (human, UniProt Q12809)
# Test: primary screen, population patch clamp on CHO cells stably expressing hERG
# 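Further: peak tail current of the secondary pulse compared with the same well before compound.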
# human ether-à-go-go-related gene (hERG) potassium channel, sequence (Q12809 whole entry, looked up): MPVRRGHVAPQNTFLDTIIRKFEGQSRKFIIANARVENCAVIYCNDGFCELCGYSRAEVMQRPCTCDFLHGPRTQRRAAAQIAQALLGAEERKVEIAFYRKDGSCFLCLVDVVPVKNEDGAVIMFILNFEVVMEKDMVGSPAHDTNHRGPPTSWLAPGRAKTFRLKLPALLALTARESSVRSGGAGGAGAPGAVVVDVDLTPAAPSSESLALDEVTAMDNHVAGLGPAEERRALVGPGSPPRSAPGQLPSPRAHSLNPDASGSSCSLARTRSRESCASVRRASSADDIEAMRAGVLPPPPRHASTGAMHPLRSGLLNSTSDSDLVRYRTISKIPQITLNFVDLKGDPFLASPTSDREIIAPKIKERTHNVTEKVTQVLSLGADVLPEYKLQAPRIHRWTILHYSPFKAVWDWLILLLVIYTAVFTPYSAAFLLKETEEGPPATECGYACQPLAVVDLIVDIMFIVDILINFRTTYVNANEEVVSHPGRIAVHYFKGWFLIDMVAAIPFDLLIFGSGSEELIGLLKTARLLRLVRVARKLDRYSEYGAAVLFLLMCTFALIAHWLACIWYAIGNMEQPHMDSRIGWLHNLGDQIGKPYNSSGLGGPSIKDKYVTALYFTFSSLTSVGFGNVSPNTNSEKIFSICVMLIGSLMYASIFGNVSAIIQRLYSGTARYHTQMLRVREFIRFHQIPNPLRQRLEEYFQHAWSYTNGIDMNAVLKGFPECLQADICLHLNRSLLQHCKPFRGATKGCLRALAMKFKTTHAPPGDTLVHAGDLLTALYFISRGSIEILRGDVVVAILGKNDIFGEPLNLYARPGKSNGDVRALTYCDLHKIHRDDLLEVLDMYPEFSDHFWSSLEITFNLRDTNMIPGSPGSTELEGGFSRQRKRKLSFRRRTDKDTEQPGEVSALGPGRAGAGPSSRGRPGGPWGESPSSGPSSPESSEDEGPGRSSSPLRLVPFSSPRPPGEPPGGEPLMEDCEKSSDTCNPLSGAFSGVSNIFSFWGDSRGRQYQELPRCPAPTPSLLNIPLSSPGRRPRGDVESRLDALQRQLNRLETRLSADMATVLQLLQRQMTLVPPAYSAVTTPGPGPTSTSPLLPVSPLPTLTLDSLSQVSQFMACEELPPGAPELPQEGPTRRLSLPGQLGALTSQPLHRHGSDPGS
row,Compound,"hERG current change (%, negative = inhibition) at 10uM [%]"
1,N#Cc1cc(Cl)c(NCC2CCCO2)cc1C#N (stereo not drawn),7.45
2,O=C(Nc1ccccc1C(=O)NC1CCCCC1)c1ccccc1,-11.2
3,CN1CCN(c2ccc(S(=O)(=O)N3CCCCC3)cc2NC(=O)Cc2ccc(Cl)cc2)CC1,-72
4,COc1ccc(OCCCC(=O)OCC(=O)Nc2nnc(-c3ccccc3)o2)cc1,-12.2
5,COc1ccc(N(Cc2cc3cc(OC)ccc3[nH]c2=O)S(C)(=O)=O)cc1,-0.157
6,COc1cccc(C2Cc3ccccc3C(=O)O2)c1 (stereo not drawn),8.03
7,O=C(NCc1ccncc1)c1c(F)c(F)c(F)c(F)c1F,-4.03
8,Cc1nc(SCc2ccc(Cl)c(Cl)c2)ncc1C(=O)O,5.06
9,COc1ccc(-c2nc(-c3ccc(NC(=O)c4ccc(Br)o4)cc3)no2)cc1OC,14.1
10,CC(C)CC1(C)N=C(c2ccccc2)C(=S)N1 (stereo not drawn),8.32
11,Cc1ccc(C2N(c3ccc(Cl)cc3)C(=O)N3CCCN23)cc1 (stereo not drawn),-1.05
12,COc1cccc(NC(=O)CC(=O)c2ccc([N+](=O)[O-])cc2)c1,0.117
13,O=C1N(c2ccccc2)C(=Nc2ccccc2)SC12CC2,3.07
14,COCc1cccc(C(=O)NC(c2ccccc2)c2ccccc2)c1,-27.2
15,CCCn1c(C)cc(/C=C(\C#N)C(=O)OCC(=O)NC(=O)NC(C)(C)C)c1C,5.81
16,O=C(CN1CCN(Cc2ccc3c(c2)OCO3)CC1)c1c[nH]c2ccccc12,-63.5
17,O=C(COC(=O)c1cccc(Cl)c1Cl)NCc1cccs1,5.46
18,CC(C)c1ccc(-n2ccnc2SCC(=O)O)cc1,11.2
19,Cc1cccc(N2CCN(CC(=O)NCC3CCCCC3)CC2)c1C.Cl,-6.63
20,Cc1ccc(C)c(C(=O)CC2(O)C(=O)N(C)c3ccccc32)c1 (stereo not drawn),8.85
21,COC(=O)CSc1nnc(SCc2ccccc2)s1,7.89
22,CC(C)N1C(=O)CCC1C(=O)NCCc1ccc(Cl)cc1 (stereo not drawn),1.9
23,COc1ccccc1NS(=O)(=O)c1ccc(C(=O)NCC(c2ccco2)N(C)C)cc1 (stereo not drawn),-0.744

row,Compound,"hERG current change (%, negative = inhibition) at 10uM [%]"
1,CCOC(=O)/C=C/C(=O)OCC(=O)Nc1cccc(Br)c1,0.304
2,N#CCC(=O)Nc1ccc(C(=O)OCC(=O)Nc2cccc(C(F)(F)F)c2)cc1,3.19
3,COCc1c(C#N)c(NCc2cc(OC)c(OC)c(OC)c2)nc(C)c1[N+](=O)[O-],-12.2
4,CCN(CC)S(=O)(=O)c1ccc(Cl)c(C(=O)NCC2CCCO2)c1 (stereo not drawn),10.3
5,O=C(CN1CCN(c2ccccc2)CC1)Nc1ccncc1,7.9
6,Cc1nn(C)cc1C(N)=O,0.619
7,O=c1c2cccnc2[nH]c(=S)n1CCCN1CCN(c2ccc(F)cc2)CC1,-26.1
8,CN(C(=O)CSc1ncnc2sc(-c3ccccc3)cc12)C1CCS(=O)(=O)C1 (stereo not drawn),-15.9
9,CCOC(=O)[C@@H]1[C@H]2COc3cc(OC)ccc3[C@@H]2N2C(=O)N(c3ccc(Br)cc3)C(=O)[C@]12C,-3.09
10,CCN(CC)c1ccc(NC(=O)c2ccc(Cl)nc2)cc1,14.9
11,Cc1ccc(OCC(O)Cn2nc(C)cc2C)cc1 (stereo not drawn),8.88
12,COc1ccc(C(=O)C(/C=N/O)=N/Nc2ccc(F)cc2)cc1,23.9
13,Cc1cc(=O)oc2cc(OCC(=O)NCc3cccnc3)ccc12,6.99
14,O=c1[nH]cnc(O)c1N=Nc1ccccc1,12.4
15,Cc1noc(C)c1CSc1nnc2cc(C)c3ccccc3n12,0.629
16,N#C/C(=C/c1cn[nH]c1-c1ccc(Br)cc1)C(=O)O,14.3
17,CC(C)CC(=O)Nc1c2c(nn1-c1cccc(Cl)c1)CS(=O)C2 (stereo not drawn),11.6
18,O=C(CCc1ccccc1)NCc1ccncc1,18.4
19,CCCCCCNC(=O)N[C@@H](C(=O)NCCC[C@H]1CN2C(=NC[C@@H]2Cc2ccccc2)N1CCc1cccc(OC)c1)C(C)C,-18.7
20,Cc1cc(C)cc(CSc2ccc(S(=O)(=O)N3CCCC3)cn2)c1,-5.17
21,COCc1cc(C)nc(SCC(=O)Nc2nc(C)cs2)c1C#N,-5.8
22,CCOC(=O)/C(=C\c1c[nH]c2ccccc12)NC(C)=O,0.157
23,COC(=O)c1cc2c(cc1[N+](=O)[O-])OCO2,9.54

row,Compound,"hERG current change (%, negative = inhibition) at 10uM [%]"
1,COc1cccc(NC(=O)Cc2nnc(SCC(=O)NC3CCCCC3)n2C)c1,24.3
2,CSc1ncccc1C(=O)N(C)CC(=O)Nc1ccc(Cl)cc1,-9.5
3,Cc1ccc2c(C(=O)CN3CCN(c4ccccc4)CC3)c(C)[nH]c2c1,10.4
4,CC(C)CNC(=O)c1cc(-c2ccc(Br)cc2)on1,44.7
5,O=c1[nH]c(O)c(N=Nc2ccc(S(=O)(=O)N3CCOCC3)cc2)c(=O)[nH]1,-4.59
6,CCN1CCN(CC2COc3ccccc3O2)CC1.Cl (stereo not drawn),-4.7
7,N/C(=N\OC(=O)CC1CCCCC1)c1cccc(Br)c1,27.9
8,CCCC1=C(C(=O)OCC)C2(C(=O)Nc3ccc(C)cc32)C(C#N)=C(N)O1 (stereo not drawn),-6.06
9,NCCc1c[nH]c2ccc(OCc3ccccc3)cc12,5.07
10,CC(=O)OC[C@H]1COc2ccc3ccccc3c2[C@H]1N(C)C(C)=O,-26.3
11,O=C(NN=C1CCCC1)c1sc2ccccc2c1Cl,-46.1
12,CCc1ccccc1NC(=O)Nc1cnccn1,8.92
13,Cc1ccccc1OCC(=O)N(Cc1cccc(F)c1)C1CCS(=O)(=O)C1 (stereo not drawn),-4.14
14,COc1cccc(-c2cc(-c3cccnc3)c(C#N)c(N)n2)c1,8.32
15,CCCC(=O)c1cc2c(cc1NC(=O)c1cccs1)OCCO2,20.6
16,COC(=O)C(CC(=O)c1ccccc1)CC(=O)c1ccccc1,4.39
17,Cc1nn(-c2ccccc2)c(Cl)c1/C=N/NC(N)=O,10.8
18,O=C(N/N=C/c1cccnc1)c1sc2ccccc2c1Cl,-2.83
19,COc1cccc(-c2ccc(NC(=O)C3CCCN(CCCn4cccn4)C3)cc2)c1 (stereo not drawn),-64.1
20,Cc1ccc2nc(Cl)c(C3CC(c4ccco4)=NN3C(=O)CCCC(=O)O)cc2c1 (stereo not drawn),-5.35
21,COc1cc(Cl)cc(/C=C/c2ccc3ccccc3n2)c1OC(C)=O,15.4
22,CCC(c1nnc(SCC(=O)Nc2cc(S(C)(=O)=O)ccc2Cl)n1Cc1ccccc1)N(C)C (stereo not drawn),-12.3
23,C=CCON1C(=O)c2ccccc2C1=O,19.8

row,Compound,"hERG current change (%, negative = inhibition) at 10uM [%]"
1,COc1ccc(CCNC(=O)C(NS(=O)(=O)c2cccc3nsnc23)C(C)C)cc1OC (stereo not drawn),-0.214
2,Cc1[nH]c(=O)[nH]c(=O)c1NC(=O)c1cccs1,3.34
3,CCCN1CCC(=O)N([C@H](COc2ccccc2)Cc2ccccc2)CC1,-68.1
4,COc1ccc(C(C)=O)cc1CS(=O)(=O)CC(=O)O,20.4
5,Cc1c(C(=O)c2no[n+]([O-])c2C(=O)c2cnn(C)c2C)cnn1C,1.16
6,Cc1cc(C)c2nc(N3C(=O)C(O)=C(C(=O)c4ccco4)C3c3ccco3)sc2c1.O=C(O)C(=O)O (stereo not drawn),17.2
7,COc1ccc(CN2CC(=O)N(c3cccc(Cl)c3)C2=S)cc1OC,16.4
8,CCN(CC)S(=O)(=O)c1ccc2[nH]c(=O)cc(C(=O)Nc3ccccc3N3CCCC3)c2c1,-6.87
9,O=C(NCCCn1ccnc1)C(=O)c1c[nH]c2ccccc12,9.1
10,Cc1noc(C)c1S(=O)(=O)N1CCC(C(=O)NC2CCN(Cc3ccccc3)CC2)CC1,-25
11,CC(CCN1CCN=C1N(C)C)c1ccccc1 (stereo not drawn),-15.3
12,O=C(c1ccc(F)cc1)C1CCN(C(=O)NC2CCCCC2)CC1,-6.5
13,Cn1c(SCc2nnc(-c3ccccc3Br)o2)nc2sc3c(c2c1=O)CCC3,12.7
14,O=C(O)C(O)Cc1c[nH]c2ccccc12 (stereo not drawn),15.1
15,CS(=O)(=O)N(CC(=O)NC1CC2CCC1C2)c1ccc(Oc2ccccc2)cc1 (stereo not drawn),2.38
16,Cc1c(Cc2ccccc2)c(=O)oc2cc(OC(C)C(=O)NCC3CCC(C(=O)O)CC3)c(Cl)cc12 (stereo not drawn),5.18
17,COc1ccc(S(=O)(=O)N2CCC(C(=O)N3CCOCC3)CC2)cc1,7.89
18,CC1c2nc3ccccc3n2C(CC(=O)NC2CC2)C(=O)N1Cc1ccccc1 (stereo not drawn),5.41
19,COc1ccc(C=O)cc1OS(=O)(=O)c1ccc(NC(C)=O)cc1,0.657
20,CC(C)(Oc1ccc(Cl)cc1)C(=O)OCC(=O)N1CCCC1,14.4
21,COc1cccc(NC(=O)C(Sc2nnc(-c3ccncc3)n2-c2ccc(Cl)cc2)c2ccccc2)c1 (stereo not drawn),-10.3
